Data as given in the supplement of paper PMC11417369.
The list shows a part of the results.

The sequences below were run on PfHDP1 homeodomain (GST-tagged) (assay: gcPBM binding intensity (ln(normalized median fluorescence intensity)); higher = stronger DNA binding).
Method in brief: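 Each value is the highest Masliner-normalised natural-log median intensity across replicate spots of either orientation of a probe. The probes were primer-extended double-stranded 36-bp intergenic genomic sequences on an Agilent 4 × 180k array, alongside negative controls, exposed for 1 h to GST-tagged P. falciparum DNA-binding domains expressed in E. coli. Bound protein was picked up with Alexa488 anti-GST antibody and scanned at 488 nm.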
“TATATGAAATATTATGCACACAATATATAATATGAT [CACACA_site936]” was tested, and the “gcPBM binding intensity (ln)” value was 10.2. With “ATTAATTCGTTTTGTACACACATAATGAATAATTTA [CACACA_site2235]” the “gcPBM binding intensity (ln)” value was 6.44. In the case of “TCATTTTAATTAAAAGTGCAAAAAATAATATAACTA [GTGCAC_site9968]”, the “gcPBM binding intensity (ln)” value is reported as 8.81. With “ATATATATATATATATGTACATATATATTGTTGATC [XGTACX_site8893]” the “gcPBM binding intensity (ln)” value was 9.25. “ATTTAATTCGTACATACACACGCACATATATATATA [CACACA_site8415]” was tested, and the “gcPBM binding intensity (ln)” value was 8.98. In the case of “ACATATTATTCAAGTGCACACTTTATATTTATGATT [CACACA_site3295]”, the “gcPBM binding intensity (ln)” value is reported as 8.81. With “TTTTTTTTTAAAACATAATAAAAAATAAAACAACCT [GTGCAC_negctrl_site92]” the “gcPBM binding intensity (ln)” value was 6.84. For “ATAATATATTTAATCATACACACATTTATGTACCTA [CACACA_site1719]”, the “gcPBM binding intensity (ln)” value was 6.44. In the case of “AAAAATAAAGGGTGTGCACACAAAAATATATATATA [CACACA_site1727]”, the “gcPBM binding intensity (ln)” value is reported as 10.7. In the case of “CAAAAATAATAGAATACATGCAAAAATAAATGTATA [TGCATGCA_site196]”, the “gcPBM binding intensity (ln)” value is reported as 6.51. In the case of “AAGAAAATAAAAAGGTAAATATGTATAAATAAATAA [TGCATGCA_negctrl_site88]”, the “gcPBM binding intensity (ln)” value is reported as 6.36. With “TTTTTTGAAAATAAATGTACGAATTTTATATTTAAA [XGTACX_site2768]” the “gcPBM binding intensity (ln)” value was 6.16. For “TGAAATAAAATTATTTGTACATATCGGAAAAAAAAA [XGTACX_site7131]”, the “gcPBM binding intensity (ln)” value was 6.37. “AAGGCATATATAATTTGTACATATTAAGAATTAGAT [XGTACX_site8660]” was tested, and the “gcPBM binding intensity (ln)” value was 6.82. For “AAATTACCCATCCATACACACATATTTTTTTTAATT [CACACA_site2189]”, the “gcPBM binding intensity (ln)” value was 7.01. “GATACAGATGGACACACACACATACATAAATACATA [CACACA_site5833]” was tested, and the “gcPBM binding intensity (ln)” value was 6.89. With “TAATGACAATAAAAATAAATAAATAAAAAAAAAAAA [TGCATGCA_negctrl_site321]” the “gcPBM binding intensity (ln)” value was 6.15. In the case of “AATAAATAAATAAATAAATAAATATATATATATATA [GTGCAC_negctrl_site330]”, the “gcPBM binding intensity (ln)” value is reported as 9.07. For “ATATATTATCTGTACACACACATATAAGGGATTATA [CACACA_site4180]”, the “gcPBM binding intensity (ln)” value was 6.8. For TTTATTTTGTTTATGGTGCATTTTATGTAAATATAT, the “gcPBM binding intensity (ln)” value was 9.45. “AATTTTTATACGGATACACACAAAAAAAAATAAAAA [CACACA_site897]” was tested, and the “gcPBM binding intensity (ln)” value was 6.64. With “TAAATATATTTATAAGCACACACTAATAAACCCACA [CACACA_site390]” the “gcPBM binding intensity (ln)” value was 7.1. With “AAAATATATTATTATTGTACATATATTTTCATTTAC [XGTACX_site4593]” the “gcPBM binding intensity (ln)” value was 6.4. With “TACAATATAAAATACACACACACAAACATATATTTA [CACACA_site5941]” the “gcPBM binding intensity (ln)” value was 7.08. With “TATATATATTTATAATGTACACATATATGTAAATAT [XGTACX_site3695]” the “gcPBM binding intensity (ln)” value was 6.73. With “TGCCCTAACCATACTACACACACTGCTCAAAATAGT [CACACA_site2219]” the “gcPBM binding intensity (ln)” value was 7.09. For “AAAAAATACATACATACACACATATTTATTTATATA [CACACA_site6554]”, the “gcPBM binding intensity (ln)” value was 6.42. In the case of “TTATGCATATATTATGCATGTAGTTTTAAATCACAT [TGCATGCA_site104]”, the “gcPBM binding intensity (ln)” value is reported as 6.37. “TATATACACATTTTTATACACACTTGTTTTATAAAA [CACACA_site8139]” was tested, and the “gcPBM binding intensity (ln)” value was 7.12. For “GCACAAATATATATATATATATATATATATATATAT [GTGCAC_negctrl_site661]”, the “gcPBM binding intensity (ln)” value was 9.39. “ATAATTATATACCATGCACACAAATATTCATACAGG [CACACA_site9343]” was tested, and the “gcPBM binding intensity (ln)” value was 8.83. For “AAGAACCATATTTAAACACACATACCTATATAAATA [CACACA_site7553]”, the “gcPBM binding intensity (ln)” value was 6.32. With “CAAAAGAAGGTAAACACACACACACCCATACAAAAA [CACACA_site3765]” the “gcPBM binding intensity (ln)” value was 7. For “ATTATTCGTTTTAAATGTACTCATATAAACGATAAA [XGTACX_site7866]”, the “gcPBM binding intensity (ln)” value was 6.27. In the case of “TAAATAAATCCACATACACACACGACGCTAGTATAT [CACACA_site1060]”, the “gcPBM binding intensity (ln)” value is reported as 6.28. With “TTTTTATTTTTAGTAGTGCATTAATCATATGGTCAT [GTGCAC_site9879]” the “gcPBM binding intensity (ln)” value was 8.77. “GATAGATAATATTTTAGTACATAAACAATTAAATAT [XGTACX_site4125]” was tested, and the “gcPBM binding intensity (ln)” value was 6.52. “AATATTTTATTTTTTCTCATTAAAAATTTTTTTTTT [CACACA_negctrl_site364]” was tested, and the “gcPBM binding intensity (ln)” value was 6.37. “ATATTTTTTTTCATTTGTACACATAAAATTATATAG [XGTACX_site8260]” was tested, and the “gcPBM binding intensity (ln)” value was 6.68. For “CATATTTACATTAAGTGTACTTATGAATATATATAC [XGTACX_site7962]”, the “gcPBM binding intensity (ln)” value was 6.2. With “ATAATATTTTATAATTGTACTTTTTATAAATATAAA [XGTACX_site1940]” the “gcPBM binding intensity (ln)” value was 6.14. In the case of “TTTATTAAAACAAAATGTACACACATATAATTTAAT [XGTACX_site1637]”, the “gcPBM binding intensity (ln)” value is reported as 6.39. For “TAAATTCTGTTTAAAAGTACAAATAATATTGTGCCT [XGTACX_site7805]”, the “gcPBM binding intensity (ln)” value was 6.02. “AAATGTTGAAATGATACACACATATATATATATATA [CACACA_site2517]” was tested, and the “gcPBM binding intensity (ln)” value was 9.25. “TGAAAGTGTATTAAAGTGCATATTATTTTATCTACC [GTGCAC_site9969]” was tested, and the “gcPBM binding intensity (ln)” value was 8.63. For “TTAATCTTCATAAAATGTACAGAAGATTGAATATTC [XGTACX_site6213]”, the “gcPBM binding intensity (ln)” value was 6.11. “TTATATTTTTTTTGTAGTACATTATAGAATACACAC [XGTACX_site969]” was tested, and the “gcPBM binding intensity (ln)” value was 6.58. In the case of “TTAATAACAAAATAAACACACATATATAAATACACA [CACACA_site6849]”, the “gcPBM binding intensity (ln)” value is reported as 6.95. With “AAATTATATATAATAAATAATTTCTTTTTCTAAAAG [CACACA_negctrl_site8]” the “gcPBM binding intensity (ln)” value was 5.91. In the case of “AAAAAAAAAAAAAAAAGTACACACTTTTGCCTACAT [XGTACX_site6583]”, the “gcPBM binding intensity (ln)” value is reported as 6.68. In the case of “TTTTATAATTTCAAAGGATTCTTTAATATTATAAAT [CACACA_negctrl_site1812]”, the “gcPBM binding intensity (ln)” value is reported as 5.9. For “AATAATTGCTAAAGGTGTACAATACGTATATAAGAA [XGTACX_site4910]”, the “gcPBM binding intensity (ln)” value was 8.18. With “AAATCAAAAACGTTTACACACATTCTTATTTAAATA [CACACA_site790]” the “gcPBM binding intensity (ln)” value was 7.07. In the case of “TACAGAAATTTATATATATATATATATATATATATA [XGTACX_negctrl_site209]”, the “gcPBM binding intensity (ln)” value is reported as 9.41. “TACATATATTTTTTATGTACTTACTTGTGTGTTTAT [XGTACX_site5126]” was tested, and the “gcPBM binding intensity (ln)” value was 6.33. In the case of “TGAGACATGAATGCAAGTACAAAAAGGAGAACAAAA [XGTACX_site6183]”, the “gcPBM binding intensity (ln)” value is reported as 7.07.
